Out of some 310,000 compounds screened, about 14,000 (4.5%) showed an effect of 50% or more. The effect is printed as a negative number. The list shows a part of the results.
Biological target: human ether-à-go-go-related gene (hERG) potassium channel (human, UniProt Q12809)
Assay: primary screen, population patch clamp on CHO cells stably expressing hERG
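Further: peak tail current of the secondary pulse compared with the same well before compound.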

human ether-à-go-go-related gene (hERG) potassium channel, sequence (Q12809 whole entry, looked up): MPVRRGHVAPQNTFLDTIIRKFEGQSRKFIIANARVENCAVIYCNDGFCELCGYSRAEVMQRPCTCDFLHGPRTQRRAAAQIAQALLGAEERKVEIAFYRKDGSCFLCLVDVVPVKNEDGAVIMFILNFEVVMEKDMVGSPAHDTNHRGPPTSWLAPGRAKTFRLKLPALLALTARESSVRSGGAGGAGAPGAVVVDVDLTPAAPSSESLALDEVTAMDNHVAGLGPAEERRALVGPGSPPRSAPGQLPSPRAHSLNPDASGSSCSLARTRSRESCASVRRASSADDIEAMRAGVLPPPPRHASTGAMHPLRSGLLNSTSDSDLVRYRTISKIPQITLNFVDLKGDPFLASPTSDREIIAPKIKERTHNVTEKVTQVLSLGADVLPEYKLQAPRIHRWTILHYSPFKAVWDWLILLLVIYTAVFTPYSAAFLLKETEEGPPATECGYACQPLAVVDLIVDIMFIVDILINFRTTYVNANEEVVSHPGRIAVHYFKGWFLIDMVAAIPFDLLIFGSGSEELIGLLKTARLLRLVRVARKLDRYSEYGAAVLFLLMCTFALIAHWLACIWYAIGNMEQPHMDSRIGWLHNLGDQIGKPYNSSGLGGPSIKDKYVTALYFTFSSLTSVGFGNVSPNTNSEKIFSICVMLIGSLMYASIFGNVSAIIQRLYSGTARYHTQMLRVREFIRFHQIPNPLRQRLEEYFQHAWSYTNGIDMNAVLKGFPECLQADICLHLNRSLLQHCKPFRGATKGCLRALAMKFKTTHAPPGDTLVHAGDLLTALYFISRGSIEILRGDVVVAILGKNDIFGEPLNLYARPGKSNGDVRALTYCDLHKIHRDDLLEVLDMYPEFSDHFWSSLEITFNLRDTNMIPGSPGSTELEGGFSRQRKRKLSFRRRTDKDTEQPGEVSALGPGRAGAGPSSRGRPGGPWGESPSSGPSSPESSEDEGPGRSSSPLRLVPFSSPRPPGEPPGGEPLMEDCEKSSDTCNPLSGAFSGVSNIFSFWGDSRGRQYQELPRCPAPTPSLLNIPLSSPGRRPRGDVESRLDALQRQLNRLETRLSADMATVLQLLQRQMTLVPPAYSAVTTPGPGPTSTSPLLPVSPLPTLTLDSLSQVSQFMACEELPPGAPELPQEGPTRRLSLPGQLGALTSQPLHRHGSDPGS

Row | SMILES | hERG current change (%, negative = inhibition) at 10uM [%]
1 | COC(=O)C1CCN(C(=O)c2ccc3nccnc3c2)CC1 | 27.6
2 | Fc1ccc(NC(=S)NCc2ccccc2Cl)cc1 | 8.57
3 | CCC(=O)Nc1nnc(SCc2cccc(F)c2)s1 | 6.2
4 | CCOc1ccc(N2C(=O)CC(N(Cc3ccco3)C(=O)CC)C2=O)cc1 (stereo not shown) | -0.571
5 | CCNc1nc(NC(C)C)nc(ON=C(C)C)n1 | 7.4
6 | COC(=O)c1cc(S(=O)(=O)N2CCN(C3CCCCC3)CC2)c[nH]1 | -14.6
7 | CCOC(=O)Cn1c(=O)cc(C)c2ccccc21 | 26.2
8 | N#Cc1nc(Cc2ccccc2)oc1NCCc1ccccc1 | -22.6
9 | C/C=C/C1=CC(=O)C[C@H](c2ccc(OC)c(OC)c2)C1 | -5.28
10 | COc1ccc(Nc2c3c(nc4c(-c5ccccc5)c(C)nn24)CCC3)cc1 | -0.517
11 | COc1ccccc1CNC(=O)COc1ccccc1C | 7.53
12 | NS(=O)(=O)c1cccc(NC(=O)CCS(=O)(=O)c2ccc(Cl)cc2)c1 | 7.53
13 | COC(=O)/C(=N\Nc1ccccc1)Sc1nnc(-c2ccc(OC)cc2)n1C | -25.9
14 | OCC(O)/C=N/Nc1nc(N2CCCCC2)nc(N2CCCCC2)n1 (stereo not shown) | 3.85
15 | O=C(CC(c1ccc(F)cc1)c1ccco1)N1CCCC1 (stereo not shown) | -5.5
16 | Cc1ccc2nc(SCC(=O)Nc3cc([N+](=O)[O-])ccc3F)[nH]c2c1 | -57.4
17 | O=C(CC1CCCC1)OCn1nnc2ccccc2c1=O | -15.7
18 | COc1ccc(OC)c(N(CC(=O)Nc2ccc3c(c2)OCO3)S(=O)(=O)c2ccccc2)c1 | -6.82
19 | O=C(O)CCc1nn2c3ccccc3n(CC(=O)c3cccs3)c2nc1=O | 19.3
20 | CCN(CC)Cc1c(C(=O)N/N=C/c2cccc(OCc3cccc(Cl)c3)c2)nnn1-c1nonc1N | -1.32
21 | Cc1ccc(C)c(N2CCN(CC(=O)Nc3ccc([N+](=O)[O-])cc3C(=O)Nc3ccccc3F)CC2)c1 | -18
22 | COc1ccc(-n2cc(-c3ccccc3)nc2SC)cc1 | 19.2
23 | CCn1c(SCc2nc3ccccc3s2)nc2cc(S(=O)(=O)N3CCOCC3)ccc21 | -13

Row | SMILES | hERG current change (%, negative = inhibition) at 10uM [%]
24 | Cc1ccc(S(=O)(=O)NCC(=O)N(CC(=O)NCC2CCCO2)C2CCCC2)cc1 (stereo not shown) | -1.28
25 | O=C(Cc1ccccc1)NNC(=O)Cc1ccccc1 | 3.99
26 | Cc1ccc(Cl)cc1N1CCN(C(=O)COc2ccc(S(=O)(=O)NC(C)C)cc2)CC1 | -4.92
27 | O=[n+]1cc(-c2ccc(F)cc2)n([O-])c2c1CCC2 | 10.5
28 | COc1ccc(CN2CCC(=O)N(CCO)CC2)cc1OC | 3.26
29 | CCCc1cc(=O)oc2cc(OCC(=O)NC(Cc3ccc(Cl)cc3)C(=O)O)ccc12 (stereo not shown) | 15.3
30 | Cc1nn(C(C)(C)C)c(OC(=O)c2cccs2)c1Sc1ccccc1 | -8.8
31 | O=C(Nc1ccccc1Oc1ccccc1)c1cccs1 | -14.5
32 | Cc1cccc(N=C2NC(=O)CS2)c1C | 2.78
33 | O=C1CCN(CCc2ccccc2)CCN1CCSc1ccccc1 | -76.4
34 | COc1ccc(C2=CC(=O)CC(c3ccc(F)cc3)C2)cn1 (stereo not shown) | -61.1
35 | CCC1CCC(C(=O)NNC(=O)OC)CC1 (stereo not shown) | -0.0223
36 | CCOC(=O)C1=C(CC)Nc2ccccc2N=C1NC(=O)c1ccc(S(=O)(=O)N2CCCC2)cc1 | -13.6
37 | CCN(CCNC(=O)c1ccc(C#N)cc1)c1cccc(C)c1 | -36.3
38 | CC(NC(=O)c1cc(-c2ccncc2)nc2ccc(Cl)cc12)C1CCCO1 (stereo not shown) | 4.23
39 | O=C(O)c1nn(-c2ccc(F)cc2)ccc1=O | 27.8
40 | O=S(=O)(Nc1ccc(-n2cnnn2)cc1)c1ccc(Cl)cc1 | -18.2
41 | Cc1csc(C(C#N)C(=O)c2cc3ccccc3o2)n1 (stereo not shown) | -7.89
42 | CCc1ccccc1N1C(=O)CC(N2CCc3ccccc32)C1=O (stereo not shown) | -16
43 | O=C(COc1ccc(Cl)cc1)NCc1nnc(SCC(=O)NC2CCCCC2)o1 | 13.1
44 | O=C(NCC(c1ccco1)N1CCCC1)c1cccc(S(=O)(=O)N2CCOCC2)c1 (stereo not shown) | -0.947
45 | O=C(c1ccccc1)N1CC(COc2ccccc2)OC(c2ccco2)O1 (stereo not shown) | -14.4
46 | CC(C)N(CC(N)=O)c1ccc(S(=O)(=O)N2CCCC2)cn1 | -13.7

Row | SMILES | hERG current change (%, negative = inhibition) at 10uM [%]
47 | CC(OC(=O)c1ccccn1)C(=O)Nc1ccc(C(F)(F)F)cc1 (stereo not shown) | -14.4
48 | Clc1ccc(NC2=NCCCS2)cc1Cl | 9.94
49 | Cc1ccc(NC(=O)CCOc2ccccc2)c(C)c1 | 21
50 | N#CCc1cnc2ccccc2n1 | 11.7
51 | COc1ccc(CN2CCN(Cc3ccco3)CC2)cc1OC.O=C(O)C(=O)O | 1.22
52 | CCCC(=O)NC(c1ccc(N(C)C)cc1)c1c(O)ccc2ccccc12 (stereo not shown) | 0.887
53 | COc1ccccc1NC(=O)Cn1nnc(-c2ccccc2NC(=O)c2ccco2)n1 | 17.8
54 | Cc1ccc(S(=O)(=O)N2CCC(=O)N(CCOC(=O)Nc3ccccc3C)CC2)cc1 | -26.8
55 | Cc1cccc(OCCCC(=O)O)c1 | 3.93
56 | CCOC(=O)c1c[nH]n(-c2ccccc2)c1=O | 22.7
57 | CCn1cc(NC(=O)CCl)c(C)n1 | 16.6
58 | CC1CCCCN1c1ccc(N)cc1C(N)=O (stereo not shown) | 6.89
59 | Cc1ccc(-n2c(C)cc(/C=N/NC(=O)CC3(C)OCCO3)c2C)c(C)c1 | 5.27
60 | CN(Cc1nc(-c2cccs2)no1)CC(O)c1ccccc1 (stereo not shown) | 2.22
61 | CCC(=NCc1cccnc1)c1c(O)n(-c2ccc(Cl)cc2)c(=O)[nH]c1=O | -5.41
62 | CC(NC(=O)c1cc(COc2ccc3ncccc3c2)on1)c1ccc(F)cc1 (stereo not shown) | 2.84
63 | O=C(c1ccc(Cl)c(S(=O)(=O)N2CCCCCC2)c1)N1CCCC1 | -38.9
64 | Cc1ccc(S(=O)(=O)NCc2ccccc2C)cc1 | 11.6
65 | N#Cc1c(-c2ccccc2)ccn(Cc2ccc(Cl)cc2)c1=O | 9.74
66 | Cc1n[nH]c(C)c1S(=O)(=O)N1CCN(S(=O)(=O)c2ccccc2C#N)CC1 | 10.6
67 | O=C(Nc1ccc(F)cc1)c1csc(Cc2ccccc2)n1 | -28.9
68 | CCCCNC(=O)NNc1nc(Cl)cc(C)c1C#N | 29.2
69 | O=C1CCC(C(=O)N2CCCCCC2)CN1CCc1ccc(Cl)cc1 (stereo not shown) | -28.9

Row | SMILES | hERG current change (%, negative = inhibition) at 10uM [%]
70 | COc1cc(C2/C(=C(\O)c3ccc4c(c3)OCCO4)C(=O)C(=O)N2Cc2ccccc2)ccc1O (stereo not shown) | 16.1
71 | c1ccc2[nH]c(SCC3CCCCO3)nc2c1 (stereo not shown) | 11.1
72 | CCC(=O)Nc1c(OC(=O)CC)ccc2c(C)cc(=O)oc12 | 16.3
73 | CCOC(=O)c1c(-c2ccc(OC)cc2)csc1NC(=O)CSc1ccccc1 | -3.31
74 | COc1cc(OC)cc(C(=O)NC(=S)N2CCN(c3ccc(C(F)(F)F)cc3[N+](=O)[O-])CC2)c1 | 0.246
75 | O=C(/C=C/c1ccc2c(c1)OCO2)c1ccco1 | 19.4
76 | O=C(O)c1cccc(S(=O)(=O)Nc2ccccc2-c2ccccc2)c1 | 26.2
77 | CN(C)C(CNC(=O)Cc1cccc(C(F)(F)F)c1)c1ccco1 (stereo not shown) | 4.08
78 | CCOc1ccc(C=NC23CN4CN(CN(C4)C2)C3)cc1 | 9.36
79 | O=C(Nc1ccc(F)c(Cl)c1)C1CCCN(c2cnccn2)C1 (stereo not shown) | -24.9
80 | N#Cc1ccccc1CSc1nc(N2CCCCC2)nc(N2CCCCC2)n1 | 5.79
81 | CCN(Cc1nc2cc(Cl)ccc2c(=O)[nH]1)C(=O)c1cccc(NC(=O)c2cccs2)c1 | -24.7
82 | CN(Cc1cnccn1)C(=O)C1CCC(=O)N(CCc2ccccc2)C1 (stereo not shown) | 19.7
83 | Cc1ccccc1C(=O)O/N=C(\N)c1ccc([N+](=O)[O-])cc1 | -20.8
84 | Cc1ccc(N(CC(=O)N2CCN(c3ccc(F)cc3)CC2)S(=O)(=O)c2c(C)noc2C)cc1 | -39.5
85 | Cc1ccc(CS(=O)(=O)CCC(=O)NCC2CCCO2)cc1 (stereo not shown) | -21.9
86 | COc1ccc(-c2nc(CS(=O)CC(=O)N3CCN(C)CC3)c(C)o2)cc1 (stereo not shown) | 10.5
87 | O=C(Cn1ccc([N+](=O)[O-])n1)N1CCc2ccccc21 | -2.32
88 | COc1ccc(-c2nc(CCNC(=O)c3ccc(Br)o3)cs2)cc1 | -6.4
89 | Cc1ccc(-n2cc(C(C)(C)C)[nH]c2=S)cc1 | 7.2
90 | COc1ccc(N(C(=O)c2cc3ccccc3oc2=O)C2C=CS(=O)(=O)C2)c(OC)c1 (stereo not shown) | -4.69
91 | COc1ccc(C2CC(=O)Oc3cc(O)cc(O)c32)cc1 (stereo not shown) | 2.27
